# Measured values reported in PubChem BioAssay (Tox21).
# Where “and” joins values, the source holds several entries; their conditions need not be identical. Equal values may be shown once. This list was built around the results that the source calls inconclusive (neither active nor inactive); the mix of calls is not that of the screen. Where the call is inconclusive, the potency comes from a doubtful curve fit. The source holds several records for some structures; these can differ, active in one and inactive in another. Calls of active or inactive are those of the source. The call rests on the fitted dose curve; in most records, active means well fitted curve in the direction sought with a large enough effect in the repeat runs; inconclusive means weak or mixed curves; inactive means no such curve, though single readings can be large; an effect the other way counts as inactive or inconclusive.
# Columns and labels:
# [1] = Caspase-3/7 induction in CHO-K1 cells by small molecules, qHTS cell viability counter screen (AID 1346979); further: nearly all actives have a fitted effect of over 35% in size; on activity change, negative = cytotoxicity: on the % scale 0 is the no-effect control and ±100 the full control effect
# Method in brief: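 Cytotoxicity counter screen: CellTiter-Fluor added to compound-treated wild-type CHO-K1 cells at 16 h (37C, 5% CO2), fluorescence measured 1 h later; same wells as caspase-3/7 measurement.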
# [2] = target: Cytochrome P450 2D6 (Homo sapiens) (UniProt P10635); test: Cytochrome P450 Family 2 Subfamily D Member 6 (CYP2D6) small molecule antagonists: luciferase reporter qHTS assay (AID 1671196); further: nearly all actives have a fitted effect of over 50% in size
# Method in brief: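 CYP2D6 activity was followed as luminescence from its luciferin product after a 1 h NADPH-driven reaction at room temperature. Enzyme-substrate mix and compound were pre-incubated for 10 min, and the signal was read 20 min after adding detection reagent.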
# [3] = target: Nuclear receptor subfamily 1 group I member 2 (Homo sapiens) (UniProt O75469); test: Human pregnane X receptor (PXR) small molecule agonists, qHTS assay (AID 1346982); further: nearly all actives have a fitted effect of over 35% in size
# Method in brief: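 Agonist mode: luminescence from ONE-Glo after 24 h compound exposure at 37C in HepG2 cells carrying hPXR-responsive CYP3A4 luciferase, plated in charcoal-stripped serum medium 5 h beforehand.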
# [4] = target: Cytochrome P450 2C9 (Homo sapiens) (UniProt P11712); test: Cytochrome P450 Family 2 Subfamily C Member 9 (CYP2C9) small molecule antagonists: luciferase reporter qHTS assay (AID 1671198); further: nearly all actives have a fitted effect of over 50% in size
# Method in brief: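 Enzyme-substrate mix preincubated with compound 10 min at room temperature; reaction started with NADPH regeneration solution, 1 h 37C. Luminescent luciferin product read after 20 min detection reagent.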
# [5] = target: Cytochrome P450 1A2 (Homo sapiens) (UniProt P05177); test: Cytochrome P450 Family 1 Subfamily A Member 2 (CYP1A2) small molecule antagonists: luciferase reporter qHTS assay (AID 1671199); further: nearly all actives have a fitted effect of over 50% in size
# Method in brief: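 Luminescence from luciferin formed by CYP1A2 from a proluciferin substrate, read 20 min after detection reagent. Compound was pre-incubated 10 min with enzyme-substrate, and reaction started with NADPH regeneration solution for 1 h at room temperature; furafylline control.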
# [6] = target: Voltage-gated inwardly rectifying potassium channel KCNH2 (Homo sapiens) (UniProt Q12809); test: Human Ether-a-go-go-Related Gene (hERG) channel small molecule antagonists: fluorescence cell-based qHTS assay (AID 1671200); further: nearly all actives have a fitted effect of over 50% in size
# Method in brief: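 Thallium flux as potassium surrogate: FluxOR II dye loaded 1 h at room temperature into hERG-expressing U2OS cells, then stimulus buffer added after 10 min. Kinetic 480 nm excitation/540 nm emission read, 2 min.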
# [7] = Caspase-3/7 induction in HepG2 cells by small molecules, qHTS cell viability counter screen (AID 1346981); further: nearly all actives have a fitted effect of over 30% in size; on activity change, negative = cytotoxicity: series mostly up to about 92 µM; on the % scale 0 is the no-effect control and ±100 the full control effect
# Method in brief: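 CellTiter-Fluor fluorescence measured viability in the same wells used for Caspase-Glo 3/7. HepG2 (wild type) at 2,000 cells/well were pre-incubated 5 hr, dosed, and given reagent at 16 hr, with 1 hr further at 37C.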
# [8] = target: Cytochrome P450 2C19 (Homo sapiens) (UniProt P33261); test: Cytochrome P450 Family 2 Subfamily C Member 19 (CYP2C19) small molecule antagonists: luciferase reporter qHTS assay (AID 1671197); further: nearly all actives have a fitted effect of over 65% in size
# Method in brief: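 P450-Glo CYP2C19 system: enzyme-substrate mix with compound 10 min at room temperature, then NADPH regeneration solution, 1 h at 37C. Proluciferin-to-luciferin conversion detected by luminescence after 20 min with detection reagent; ketoconazole as positive control.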
# [9] = Caspase-3/7 induction in CHO-K1 cells by small molecules, qHTS assay (AID 1346980); further: nearly all actives have a fitted effect of over 15% in size
# Method in brief: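 Luminescent Caspase-Glo 3/7 read (30min, room temperature) quantified apoptosis induction. Cells were wild-type CHO-K1, treated with compound for 17hr at 37 C and 5% CO2.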
# [10] = target: Nuclear receptor subfamily 1 group I member 2 (Rattus norvegicus) (UniProt Q9R1A7); test: Rat pregnane X receptor (rPXR) activation by small molecules, qHTS assay (AID 1346983); conditions: rPXR luciferase reporter cells, One-Glo luminescence, 24 h; max activation: stronger effect = higher value; further: nearly all actives have a fitted effect of over 20% in size
# Method in brief: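 Luminescent readout (One-Glo luciferase, 30 min room temperature) followed 24 hr compound treatment at 37 C of rPXR cells plated 2,000 per well and preincubated 5hr; qHTS format with compounds delivered in DMSO.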
# [11] = target: Nuclear receptor subfamily 1 group I member 2 (Homo sapiens) (UniProt O75469); test: CYP3A4 induction through human pregnane X receptor (PXR) by small molecules, qHTS assay (AID 1346984); further: nearly all actives have a fitted effect of over 40% in size
# Method in brief: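 Read-out is luminescence after One-Glo addition, following a 3 hr, 37C incubation with Luciferin-IPA CYP3A4 substrate (3uM final). Before that, compounds were on DPX-2 cells (HepG2 co-transfected with PXR element plus CYP3A4-promoter luciferase) for 24 hr at 37C.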
# [12] = target: Nuclear receptor subfamily 1 group I member 2 (Homo sapiens) (UniProt O75469); test: Human pregnane X receptor (PXR) activation by small molecules, qHTS assay (AID 1346985); further: nearly all actives have a fitted effect of over 40% in size
# Method in brief: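 DPX-2 cells (HepG2 co-transfected with a PXR response element and a CYP3A4-promoter luciferase construct) were seeded at 2,000 per well, rested 5 hr at 37C, then exposed to DMSO-dissolved compounds for 24 hr. Activation was read as luciferase luminescence.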
# [13] = target: Cytochrome P450 3A4 (Homo sapiens) (UniProt P08684); test: Cytochrome P450 Family 3 Subfamily A Member 4 (CYP3A4) small molecule antagonists: luciferase reporter qHTS assay (AID 1671201); further: nearly all actives have a fitted effect of over 50% in size
# Method in brief: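 Recombinant human CYP3A4 converts a proluciferin substrate to luciferin over 1 h at room temperature after NADPH regeneration solution is added (compound preincubated 10 min); detection reagent stops reaction, luminescence read 20 min later as relative units.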
# Potency means the concentration at half of the fitted maximal effect; tags describe the fitted curve by direction and shape.
# Sequence of UniProt P33261 (P33261 whole entry, looked up): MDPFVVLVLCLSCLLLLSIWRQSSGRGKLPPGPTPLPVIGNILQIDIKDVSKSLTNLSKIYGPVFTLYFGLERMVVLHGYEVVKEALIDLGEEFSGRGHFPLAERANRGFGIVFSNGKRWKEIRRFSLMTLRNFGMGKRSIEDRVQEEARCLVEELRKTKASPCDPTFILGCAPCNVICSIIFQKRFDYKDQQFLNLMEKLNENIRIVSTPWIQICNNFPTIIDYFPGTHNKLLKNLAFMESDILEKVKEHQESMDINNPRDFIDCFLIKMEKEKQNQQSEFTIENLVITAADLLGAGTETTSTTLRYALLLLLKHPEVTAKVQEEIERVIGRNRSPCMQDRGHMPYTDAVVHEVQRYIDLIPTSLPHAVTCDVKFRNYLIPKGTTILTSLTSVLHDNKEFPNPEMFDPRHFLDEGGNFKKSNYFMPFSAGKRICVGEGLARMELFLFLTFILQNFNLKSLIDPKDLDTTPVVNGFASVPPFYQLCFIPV
# Sequence of UniProt P11712 (P11712 whole entry, looked up): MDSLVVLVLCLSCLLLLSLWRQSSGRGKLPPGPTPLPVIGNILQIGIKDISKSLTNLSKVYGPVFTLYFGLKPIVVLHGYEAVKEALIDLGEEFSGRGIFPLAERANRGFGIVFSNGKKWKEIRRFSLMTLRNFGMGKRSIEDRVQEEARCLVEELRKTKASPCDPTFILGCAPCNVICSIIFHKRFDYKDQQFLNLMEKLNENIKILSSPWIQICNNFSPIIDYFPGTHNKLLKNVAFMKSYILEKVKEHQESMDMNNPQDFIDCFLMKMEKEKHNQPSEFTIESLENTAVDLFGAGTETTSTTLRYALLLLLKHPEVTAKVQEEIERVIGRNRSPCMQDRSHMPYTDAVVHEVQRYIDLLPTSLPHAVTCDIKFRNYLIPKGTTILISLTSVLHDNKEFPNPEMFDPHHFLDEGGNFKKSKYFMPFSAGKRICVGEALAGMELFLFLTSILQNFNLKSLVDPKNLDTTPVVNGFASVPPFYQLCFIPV
# Sequence of UniProt P05177 (P05177 whole entry, looked up): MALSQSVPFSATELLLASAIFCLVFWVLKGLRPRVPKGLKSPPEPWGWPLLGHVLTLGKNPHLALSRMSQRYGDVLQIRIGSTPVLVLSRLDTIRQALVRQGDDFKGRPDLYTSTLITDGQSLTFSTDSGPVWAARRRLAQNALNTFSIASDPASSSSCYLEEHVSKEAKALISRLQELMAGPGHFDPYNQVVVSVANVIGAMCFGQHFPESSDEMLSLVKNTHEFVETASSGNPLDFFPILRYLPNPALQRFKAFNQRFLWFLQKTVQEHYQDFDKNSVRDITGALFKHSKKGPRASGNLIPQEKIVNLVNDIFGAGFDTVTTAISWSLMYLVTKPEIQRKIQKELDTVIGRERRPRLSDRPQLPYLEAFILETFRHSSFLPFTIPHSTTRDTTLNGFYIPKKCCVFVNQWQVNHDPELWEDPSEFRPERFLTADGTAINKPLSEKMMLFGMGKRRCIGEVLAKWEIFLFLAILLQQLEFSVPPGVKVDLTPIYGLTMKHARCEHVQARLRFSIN
# Sequence of UniProt P10635 (P10635 whole entry, looked up): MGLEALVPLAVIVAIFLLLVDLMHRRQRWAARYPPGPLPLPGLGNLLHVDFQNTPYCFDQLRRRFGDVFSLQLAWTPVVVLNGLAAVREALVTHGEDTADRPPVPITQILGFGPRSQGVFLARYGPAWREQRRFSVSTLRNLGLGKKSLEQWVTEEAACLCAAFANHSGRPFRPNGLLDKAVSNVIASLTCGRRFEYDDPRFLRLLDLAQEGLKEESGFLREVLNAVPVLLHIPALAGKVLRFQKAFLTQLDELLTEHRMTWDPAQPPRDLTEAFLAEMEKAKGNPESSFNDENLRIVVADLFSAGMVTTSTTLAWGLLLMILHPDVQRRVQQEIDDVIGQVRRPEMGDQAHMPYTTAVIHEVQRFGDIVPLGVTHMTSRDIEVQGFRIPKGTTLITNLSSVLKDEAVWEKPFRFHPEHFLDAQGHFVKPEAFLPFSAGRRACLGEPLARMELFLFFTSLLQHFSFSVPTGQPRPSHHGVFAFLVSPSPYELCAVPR
# Sequence of UniProt Q12809 (Q12809 whole entry, looked up): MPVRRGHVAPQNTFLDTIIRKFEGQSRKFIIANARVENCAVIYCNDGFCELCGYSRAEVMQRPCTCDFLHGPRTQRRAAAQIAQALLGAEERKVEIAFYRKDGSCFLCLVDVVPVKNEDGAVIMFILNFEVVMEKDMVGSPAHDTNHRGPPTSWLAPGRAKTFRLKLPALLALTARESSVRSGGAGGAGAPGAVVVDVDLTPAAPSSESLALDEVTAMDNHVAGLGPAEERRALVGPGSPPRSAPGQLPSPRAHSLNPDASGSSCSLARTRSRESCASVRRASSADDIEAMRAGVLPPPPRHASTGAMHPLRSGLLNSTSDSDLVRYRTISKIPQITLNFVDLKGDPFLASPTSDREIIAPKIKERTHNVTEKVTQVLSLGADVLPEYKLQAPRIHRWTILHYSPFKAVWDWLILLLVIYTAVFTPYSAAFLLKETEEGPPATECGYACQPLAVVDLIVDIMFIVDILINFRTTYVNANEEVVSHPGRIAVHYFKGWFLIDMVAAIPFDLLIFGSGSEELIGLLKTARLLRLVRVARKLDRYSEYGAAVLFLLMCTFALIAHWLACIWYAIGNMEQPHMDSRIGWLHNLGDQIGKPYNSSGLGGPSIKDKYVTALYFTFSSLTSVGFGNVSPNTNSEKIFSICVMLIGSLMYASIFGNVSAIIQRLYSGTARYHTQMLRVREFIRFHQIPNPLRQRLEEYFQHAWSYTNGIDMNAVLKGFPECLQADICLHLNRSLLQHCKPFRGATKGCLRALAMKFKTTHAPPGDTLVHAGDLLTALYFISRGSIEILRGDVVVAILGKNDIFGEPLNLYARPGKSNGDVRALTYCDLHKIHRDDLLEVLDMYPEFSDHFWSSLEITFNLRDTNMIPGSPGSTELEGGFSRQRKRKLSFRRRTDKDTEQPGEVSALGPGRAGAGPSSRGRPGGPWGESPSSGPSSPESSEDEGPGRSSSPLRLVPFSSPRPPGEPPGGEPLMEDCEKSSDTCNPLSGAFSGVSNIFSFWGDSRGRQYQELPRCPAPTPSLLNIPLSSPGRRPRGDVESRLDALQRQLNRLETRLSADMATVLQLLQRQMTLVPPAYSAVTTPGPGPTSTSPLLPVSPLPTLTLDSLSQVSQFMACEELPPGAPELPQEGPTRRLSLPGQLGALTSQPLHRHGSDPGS
# Sequence of UniProt Q9R1A7 (Q9R1A7 whole entry, looked up): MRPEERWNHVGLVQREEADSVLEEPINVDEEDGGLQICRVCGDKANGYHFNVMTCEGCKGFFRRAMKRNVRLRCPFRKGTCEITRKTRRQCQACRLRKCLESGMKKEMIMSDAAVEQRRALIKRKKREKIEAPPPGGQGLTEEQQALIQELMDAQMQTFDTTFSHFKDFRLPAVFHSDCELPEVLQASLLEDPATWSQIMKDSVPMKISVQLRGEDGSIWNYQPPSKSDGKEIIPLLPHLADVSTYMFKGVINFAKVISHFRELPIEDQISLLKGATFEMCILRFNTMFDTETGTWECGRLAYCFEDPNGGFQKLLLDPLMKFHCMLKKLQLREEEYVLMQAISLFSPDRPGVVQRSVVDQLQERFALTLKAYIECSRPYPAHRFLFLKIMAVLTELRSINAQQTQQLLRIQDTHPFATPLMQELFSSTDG
# Sequence of UniProt P08684 (P08684 whole entry, looked up): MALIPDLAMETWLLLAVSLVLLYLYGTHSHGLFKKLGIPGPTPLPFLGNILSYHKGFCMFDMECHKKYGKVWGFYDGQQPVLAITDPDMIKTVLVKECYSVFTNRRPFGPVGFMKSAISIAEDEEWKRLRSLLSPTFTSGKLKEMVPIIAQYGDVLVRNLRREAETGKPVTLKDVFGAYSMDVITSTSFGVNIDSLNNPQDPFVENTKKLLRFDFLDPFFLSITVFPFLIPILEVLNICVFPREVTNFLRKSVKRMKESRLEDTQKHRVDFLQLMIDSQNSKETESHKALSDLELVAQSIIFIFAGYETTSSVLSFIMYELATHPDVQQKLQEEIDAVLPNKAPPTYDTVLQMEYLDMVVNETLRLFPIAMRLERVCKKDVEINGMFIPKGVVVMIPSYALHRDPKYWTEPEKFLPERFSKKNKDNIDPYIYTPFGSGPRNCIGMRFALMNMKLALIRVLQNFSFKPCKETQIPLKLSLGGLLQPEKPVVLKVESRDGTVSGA
compound,measurement,setting,value
O=c1[nH]cnc2[nH]ncc12,Potency,[1],"inconclusive: 29.8 µM [rising, partial curve, poor fit]"
same,Potency,[2],"inconclusive: 40.9 µM [inhibitor, partial curve] and inactive"
CN1Cc2c(N)cccc2C(c2ccccc2)C1 (stereo not given),Potency,[1],inactive
same,Potency,[3],"inconclusive: 27.3 µM [activator, partial curve]"
same,Potency,[4],"inconclusive: 63.3 µM [inhibitor, partial curve]"
same,Potency,[5],"inconclusive: 35.6 µM [inhibitor, partial curve]"
same,Potency,[6],"inconclusive: 43.6 µM [inhibitor, partial curve]"
BrCc1cccc(Oc2ccccc2)c1,Potency,[7],"inconclusive: 61.1 µM [rising, partial curve, poor fit]"
c1c[nH]cn1,Potency,[1],"inconclusive: 72.7 µM [rising, partial curve, poor fit]"
same,Potency,[2],"inconclusive: 67 µM [inhibitor, partial curve] and inconclusive: 35.6 µM [inhibitor, partial curve]"
same,Potency,[8],"active: 84.4 µM and inconclusive: 71 µM [inhibitor, single point]"
same,Potency,[4],"inconclusive: 84.4 µM [inhibitor, single point] and inconclusive: 56.4 µM [inhibitor, partial curve, poor fit]"
same,Potency,[5],"inconclusive: 119 µM [inhibitor, single point]"
CC(O)COc1ccccc1 (stereo not given),Potency,[9],"inconclusive: 69.5 µM [activator, partial curve, poor fit]"
same,Potency,[5],"inconclusive: 28.6 µM [inhibitor, full curve] and inconclusive: 71 µM [inhibitor, partial curve]"
CCOC(=O)C(C#N)=C(c1ccccc1)c1ccccc1,Potency,[9],inactive
same,Potency,[10],"inconclusive: 25.1 µM [activator, partial curve]"
same,Potency,[11],"inconclusive: 11.2 µM [activator, full curve, poor fit]"
same,Potency,[2],"inconclusive: 39.9 µM [inhibitor, partial curve]"
same,Potency,[4],active: 5.03 µM and active: 4.9 µM
same,Potency,[6],"inconclusive: 34.7 µM [inhibitor, partial curve]"
CC(C)(O)c1ccccc1CC[C@@H](SCC1(CC(=O)O)CC1)c1cccc(/C=C/c2ccc3ccc(Cl)cc3n2)c1,Potency,[1],"inconclusive: 33.5 µM [rising, partial curve, poor fit]"
same,Potency,[10],"inconclusive: 22.4 µM [activator, partial curve]"
same,Potency,[12],"inconclusive: 14.1 µM [activator, partial curve, poor fit]"
C=CC(=C)CCC=C(C)C,Potency,[1],inactive
same,Potency,[8],"inconclusive: 89.4 µM [inhibitor, single point]"
same,Potency,[4],"inconclusive: 63.3 µM [inhibitor, partial curve]"
same,Potency,[13],"inconclusive: 35.6 µM [inhibitor, full curve]"
C=CC(=O)OCCOCCOCC,Potency,[1],"inconclusive: 61.1 µM [cytotoxic, single point]"
same,Potency,[2],inactive
Cc1ccc(N=Nc2c(O)c(C(=O)O)cc3ccccc23)c(S(=O)(=O)O)c1,Potency,[7],active: 29.7 µM
C[C@](N)(Cc1ccc(O)cc1)C(=O)O,"activity change, negative = cytotoxicity",[1],inactive: -0.609% [at 8.39 µM]
same,Potency,[4],"inconclusive: 1.38 µM [inhibitor, partial curve, poor fit]"
CC(C)CC(C)(O)C#CC(C)(O)CC(C)C (stereo not given),Potency,[9],active: 42.4 µM
same,Potency,[7],"inconclusive: 30 µM [cytotoxic, full curve]"
Nc1cc(C(F)(F)F)ccc1S,Potency,[9],"inconclusive: 29.8 µM [activator, single point]"
same,Potency,[2],"inconclusive: 6.92 µM [inhibitor, full curve]"
same,Potency,[4],active: 2.19 µM
CC(C(=O)O)c1ccc(CC2CCCC2=O)cc1 (stereo not given),Potency,[9],inactive
same,Potency,[5],inactive
C/C=C(/C(=C/C)c1ccc(OC(C)=O)cc1)c1ccc(OC(C)=O)cc1,Potency,[1],"inconclusive: 29.8 µM [cytotoxic, single point]"
same,Potency,[4],active: 7.76 µM
CC1(C)OC[C@@H]2O[C@@]3(C(=O)O)OC(C)(C)O[C@H]3[C@@H]2O1,Potency,[1],inactive
same,Potency,[2],"inconclusive: 63.3 µM [inhibitor, partial curve, poor fit]"
same,Potency,[4],inactive
CC(CCc1ccccc1)NCC(O)c1ccc(O)c(C(N)=O)c1 (stereo not given),Potency,[1],active: 43.3 µM
same,Potency,[6],active: 19.5 µM
CC(=N\O)/C(C)=N/O,Potency,[1],inactive
same,Potency,[2],"inconclusive: 71 µM [inhibitor, partial curve, poor fit]"
same,Potency,[8],"inconclusive: 89.4 µM [inhibitor, single point]"
Cc1ncc([N+](=O)[O-])n1CC(O)CCl (stereo not given),Potency,[7],inactive
CNc1c2c(nn1C)CCCC2,Potency,[7],inactive
CCCCC(CC)C(=O)O (stereo not given),Potency,[1],"inconclusive: 30.7 µM [rising, partial curve, poor fit]"
same,Potency,[4],"inconclusive: 63.3 µM [inhibitor, partial curve]"
same,Potency,[5],"inconclusive: 40 µM [inhibitor, partial curve] and inconclusive: 44.8 µM [inhibitor, partial curve]"
